Publication PMC6212790
Some of the results follow. At the low end of the ranking, values are background and their order means little.

target: T1, GST-Rok-C97-191 (UniProt O34857); assay: protein binding microarray; conditions: Rok is a gene silencer of Bacillus subtilis; high values mean tight binding; most listed sequences are background and not binding sites; double strand, one strand shown;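 note: rank score from −0.5 (least bound) to 0.5 (best bound)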
T1 sequence: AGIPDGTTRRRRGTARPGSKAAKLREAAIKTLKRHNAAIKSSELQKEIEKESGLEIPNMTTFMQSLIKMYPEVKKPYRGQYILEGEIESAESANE

Sequence | binding signal
GGAAGTCA | -0.092 E-score
CTCGTGCC | -0.131 E-score
AGAATCTA | 0.322 E-score
CCCCGTAA | -0.0525 E-score
GTTGGTAA | 0.0565 E-score
AAGCTTAT | 0.0924 E-score
CGTAAAAG | 0.107 E-score
GACGCTCA | -0.222 E-score
AAAAAGAG | -0.0136 E-score
CGGATGAC | -0.049 E-score
ATTTGCGA | 0.173 E-score
TCGGCGAA | 0.043 E-score
ACAGAAGG | -0.137 E-score
ATACATAT | 0.377 E-score
CGAACTCG | 0.0971 E-score
ATAATCAG | 0.0197 E-score
ACTTAGTC | 0.0416 E-score
AGGTGGTG | 0.0311 E-score
AACTATAG | 0.327 E-score
AGTGGCGC | -0.193 E-score
CAGATTAA | -0.0932 E-score
GTGGCCAA | -0.106 E-score
ATACCCAG | 0.0683 E-score
AGGTACGA | 0.0629 E-score

Sequence | binding signal
AAAGGAAA | -0.292 E-score
CATAATCC | 0.109 E-score
ACGGCACG | -0.211 E-score
ATCCCCAA | -0.034 E-score
ACATGCAT | 0.271 E-score
ACGGCAAC | -0.0874 E-score
CCTTCGAC | -0.0957 E-score
AGCGTCGC | -0.0651 E-score
AGAGAGTA | -0.0647 E-score
GGGTGGAA | -0.291 E-score
CCACCCAA | -0.261 E-score
ACGACTGG | -0.0742 E-score
CGCGCGGA | -0.126 E-score
AAATTTCT | 0.203 E-score
CCCTTTAG | -0.173 E-score
CATAATGG | 0.056 E-score
AGCCGTTC | -0.05 E-score
AAGCCACA | -0.104 E-score
AACAGTCT | -0.162 E-score
GCCTATTA | 0.01 E-score
CGTACGTC | 0.022 E-score
GACTGCTA | 0.0595 E-score
ATGCTGAA | 0.0556 E-score
CAGCATAG | -0.177 E-score

Sequence | binding signal
CAGTGGAA | 0.0634 E-score
GAAGCACA | 0.00459 E-score
AGTGCGCA | 0.0823 E-score
GGAGATAC | 0.0834 E-score
CGGGACAG | -0.112 E-score
GGCTTGTA | -0.0701 E-score
ATGTTTGG | 0.0767 E-score
TGCGAACA | -0.0915 E-score
ATATCCGA | 0.247 E-score
AAACAAAG | 0.137 E-score
CTTAAGGC | -0.0424 E-score
ATAACCTG | 0.119 E-score
GTGAGCAC | -0.232 E-score
CGCCATAC | -0.0217 E-score
AGACCGAG | -0.161 E-score
GACATTTA | 0.0325 E-score
GTGGGAAA | -0.137 E-score
ATATGGAG | 0.0982 E-score
ACATTTAT | 0.162 E-score
CAGTAAGA | 0.146 E-score
CCCGAGTC | -0.256 E-score
GCGTCAAC | -0.19 E-score
CTCCTCAC | -0.215 E-score
AGTTGTCC | 0.112 E-score

Sequence | binding signal
GGTGTTGA | 0.0774 E-score
GTGCGCGA | -0.106 E-score
CGCCAGCG | -0.123 E-score
ATGGTAGA | 0.448 E-score
ACGCATCG | -0.204 E-score
ACTATTAT | 0.364 E-score
AGGTAACT | 0.312 E-score
ACATCGGA | 0.00658 E-score
CTGTGAGA | -0.127 E-score
ACCGGATG | 0.0222 E-score
GCGCGCAC | 0.0896 E-score
AGTCAGTA | 0.149 E-score
CCAAATCC | -0.11 E-score
ACACAACT | 0.0324 E-score
ATGACTGC | 0.0218 E-score
CGTCAGTA | 0.011 E-score
GCGTACAA | -0.0292 E-score
CTCTCATC | 0.119 E-score
GGCCTTAA | -0.234 E-score
CAGTCAAG | -0.115 E-score
AACACAAT | -0.117 E-score
CCTGACAA | -0.0451 E-score
